The other results are listed elsewhere or left out.
Tests used:
HSkMC = human skeletal muscle cells; test: cytotoxicity call (relative viability < 0.9); conditions: 10 µM
HepG2 = test: cytotoxicity call (relative viability < 0.9); conditions: 10 µM
S. aureus RN4220 = test: growth inhibition call (relative growth <= 0.2); conditions: 50 µM

Row | Structure (SMILES) | cytotoxicity call (HSkMC) | cytotoxicity call (HepG2) | growth inhibition call (S. aureus RN4220)
1 | CC(=O)N(C)C[C@H]1Oc2ncc(C#CC(C)(C)O)cc2C(=O)N([C@@H](C)CO)C[C@@H]1C | inactive | inactive | inactive
2 | COc1ccc(S(=O)(=O)N[C@@H]2C=C[C@H](CC(=O)N3CCC(Cc4ccccc4)CC3)O[C@@H]2CO)cc1 | inactive | inactive | inactive
3 | NNS(=O)(=O)c1ccc(Cl)cc1 | inactive | inactive | inactive
4 | CC(C=CC=C(C)C=CC(=O)C1(C)CC(O)CC1(C)C)=CC=CC=C(C)C=CC=C(C)C=CC1=C(C)CC(O)CC1(C)C (stereo unspecified) | inactive | inactive | inactive
5 | Cc1cc(=O)n(C(N)=S)[nH]1 | inactive | inactive | inactive
6 | CN(C)CC(=O)N[C@@H]1CC[C@@H](CCNC(=O)C2CCC2)O[C@@H]1CO | inactive | inactive | inactive
7 | COc1ccc(-c2cnc3c(c2)C(=O)N([C@@H](C)CO)C[C@H](C)[C@@H](CN(C)S(=O)(=O)c2ccc(OC)cc2)O3)cc1 | inactive | inactive | inactive
8 | COCC(=O)N(C)C[C@H]1Oc2cc(C#CC(C)(C)O)ccc2S(=O)(=O)N([C@@H](C)CO)C[C@H]1C | inactive | inactive | inactive
9 | C[C@@H]1CN([C@H](C)CO)C(=O)Cc2cc(NC(=O)NC3CCCCC3)ccc2O[C@@H]1CN(C)Cc1ccc(-c2ccccc2)cc1 | inactive | inactive | inactive
10 | CCCNC(=O)N(C)C[C@H]1Oc2cc(-c3ccc(C)cc3)ccc2S(=O)(=O)N([C@H](C)CO)C[C@H]1C | inactive | inactive | inactive
11 | C[C@H](CO)N1C[C@H](C)[C@H](CN(C)S(C)(=O)=O)OCc2cnnn2CCCC1=O | inactive | inactive | inactive
12 | CC(C)(O)[C@@H]1CC[C@]2(CO)[C@@H](O)CC[C@](C)(O)[C@H]2[C@@H]1O[C@@H]1O[C@H](CO)[C@@H](O)[C@H](O)[C@H]1O | inactive | inactive | inactive
13 | C[C@H](CO)N1C[C@H](C)[C@H](CN(C)Cc2ccc3c(c2)OCO3)Oc2ccc(NC(=O)C3CC3)cc2C1=O | inactive | inactive | inactive
14 | C[C@@H]1CN([C@H](C)CO)C(=O)c2cccc(NS(=O)(=O)c3cccs3)c2O[C@@H]1CN(C)C(=O)Nc1cccc2ccccc12 | inactive | inactive | inactive
15 | C[C@@H]1CCCCO[C@@H](CN(C)S(=O)(=O)c2ccc(F)cc2)[C@H](C)CN([C@H](C)CO)C(=O)c2cc(NS(=O)(=O)c3ccc(Cl)cc3)ccc2O1 | inactive | inactive | inactive
16 | Cn1cc(-c2ccno2)c(C(=O)O)n1 | inactive | inactive | inactive
17 | CC(C)(CO)Nc1ncnc(N)c1[N+](=O)[O-] | inactive | inactive | inactive
18 | CC(C)NC(=O)N(C)C[C@@H]1OCCCC[C@@H](C)Oc2ccc(NC(=O)Nc3ccc(C(F)(F)F)cc3)cc2C(=O)N([C@H](C)CO)C[C@@H]1C | inactive | inactive | inactive
19 | Nc1ccn([C@H]2C[C@@H](O)[C@@H](CO)O2)c(=O)n1 | inactive | inactive | inactive

Row | Structure (SMILES) | cytotoxicity call (HSkMC) | cytotoxicity call (HepG2) | growth inhibition call (S. aureus RN4220)
20 | COc1ccc(S(=O)(=O)N(C)C[C@@H]2Oc3ccc(NC(=O)Nc4c(C)noc4C)cc3CC(=O)N([C@H](C)CO)C[C@H]2C)cc1 | inactive | inactive | inactive
21 | C[C@@H]1CN([C@H](C)CO)C(=O)c2cc(NS(=O)(=O)c3cn(C)cn3)ccc2O[C@@H](C)CCCCO[C@H]1CN(C)S(=O)(=O)c1ccc(F)cc1 | inactive | inactive | inactive
22 | C[C@H]1CN([C@@H](C)CO)C(=O)c2cc(NS(=O)(=O)c3ccccc3)ccc2O[C@H]1CN(C)S(=O)(=O)c1cn(C)cn1 | inactive | inactive | inactive
23 | COc1ccc(S(=O)(=O)N(C)C[C@@H]2Oc3cc(C4=CCCC4)ccc3S(=O)(=O)N([C@@H](C)CO)C[C@@H]2C)cc1 | inactive | inactive | inactive
24 | NS(=O)(=O)c1ncn(Cc2ccccc2)n1 | inactive | inactive | inactive
25 | Cc1noc(C)c1NC(=O)Nc1cccc2c1O[C@H](CN(C)S(C)(=O)=O)[C@H](C)CN([C@@H](C)CO)C2=O | inactive | inactive | inactive
26 | CC(C)C#Cc1ccc2c(c1)O[C@H](CN(C)S(=O)(=O)c1cn(C)cn1)[C@@H](C)CN([C@H](C)CO)S2(=O)=O | inactive | inactive | inactive
27 | Cc1cc(=O)c(C(=O)N[C@@H](C(=O)N[C@@H]2C(=O)N3C(C(=O)O)=C(CSc4nnnn4C)CS[C@H]23)c2ccc(O)cc2)c[nH]1 | inactive | inactive | active
28 | Cc1ccc(S(=O)(=O)N(C)C[C@@H]2OCCCC[C@H](C)Oc3ccc(NS(C)(=O)=O)cc3C(=O)N([C@@H](C)CO)C[C@@H]2C)cc1 | inactive | inactive | inactive
29 | CCn1nnc(NC(=O)Cc2ccccc2)n1 | inactive | inactive | inactive
30 | Cc1noc(C)c1NC(=O)N(C)C[C@@H]1OCCCC[C@H](C)Oc2ccc(NC(=O)c3ccccc3)cc2C(=O)N([C@H](C)CO)C[C@H]1C | inactive | inactive | inactive
31 | C[C@H]1CN([C@@H](C)CO)C(=O)Cc2cc(NS(C)(=O)=O)ccc2O[C@H]1CN(C)S(=O)(=O)c1cccs1 | inactive | inactive | inactive
32 | C[C@@H]1CN([C@H](C)CO)C(=O)c2cc(C#C[C@@H](C)O)cnc2O[C@@H]1CN(C)C(=O)Nc1ccc(C(F)(F)F)cc1 | inactive | inactive | inactive
33 | Cc1noc(C)c1NC(=O)Nc1ccc2c(c1)C(=O)N([C@@H](C)CO)C[C@H](C)[C@@H](CN(C)C(=O)Nc1cccc3ccccc13)OCCCC[C@H](C)O2 | inactive | inactive | inactive
34 | C[C@@H]1CCCCO[C@H](CN(C)Cc2ccc(C(F)(F)F)cc2)[C@@H](C)CN([C@H](C)CO)C(=O)c2cc(NC(=O)Nc3ccc(F)cc3)ccc2O1 | inactive | inactive | inactive
35 | C[C@@H](NCc1cnc(N(C)C)s1)C(N)=O | inactive | inactive | inactive
36 | C[C@@H]1CN([C@@H](C)CO)S(=O)(=O)c2ccc(-c3cccc(C(=O)N(C)C)c3)cc2O[C@H]1CN(C)C(=O)Cc1ccccn1 | inactive | inactive | inactive
37 | CON=C(C(=O)N[C@@H]1C(=O)N2C(C(=O)O)=C(CSc3nc(=O)c(O)nn3C)CS[C@H]12)c1csc(N)n1 | inactive | inactive | active
38 | C[C@@H]1CN([C@@H](C)CO)C(=O)Cc2cc(NS(=O)(=O)c3ccccc3)ccc2O[C@@H]1CN(C)CC1CC1 | inactive | inactive | inactive

Row | Structure (SMILES) | cytotoxicity call (HSkMC) | cytotoxicity call (HepG2) | growth inhibition call (S. aureus RN4220)
39 | Cc1noc(C)c1NC(=O)Nc1cccc2c1O[C@H](CN(C)C(=O)Nc1ccc(C(F)(F)F)cc1)[C@H](C)CN([C@@H](C)CO)C2=O | inactive | inactive | inactive
40 | COc1ccc(S(=O)(=O)N(C)C[C@@H]2OCCCC[C@@H](C)Oc3ccc(NC(=O)Nc4ccc5c(c4)OCO5)cc3C(=O)N([C@H](C)CO)C[C@@H]2C)cc1 | inactive | inactive | inactive
41 | C[C@@H]1CCCCO[C@H](CN(C)Cc2ccc3c(c2)OCO3)[C@@H](C)CN([C@H](C)CO)C(=O)c2cc(NS(=O)(=O)c3ccc(F)cc3)ccc2O1 | inactive | inactive | inactive
42 | Cc1noc(C)c1S(=O)(=O)Nc1ccc2c(c1)C(=O)N([C@@H](C)CO)C[C@H](C)[C@@H](CN(C)CC1CCCCC1)OCCCC[C@@H](C)O2 | inactive | inactive | inactive
43 | CC(N)CCCC(C)(C)O.Cl (stereo unspecified) | inactive | inactive | inactive
44 | COc1cccc(S(=O)(=O)Nc2ccc3c(c2)[C@@H]2C[C@H](CC(=O)NCC(F)(F)F)O[C@@H](CO)[C@@H]2O3)c1 | inactive | inactive | inactive
45 | COc1cccc(NC(=O)N2C[C@H](O)COC[C@@H]3O[C@@H](CC(=O)NC4Cc5ccccc5C4)CC[C@H]32)c1 | inactive | inactive | inactive
46 | Cc1cc(/C=N/O)[nH]c(=O)n1 | inactive | inactive | inactive
47 | Cc1ccc(S(=O)(=O)N(C)C[C@@H]2Oc3ccc(NS(=O)(=O)c4cn(C)cn4)cc3C(=O)N([C@H](C)CO)C[C@@H]2C)cc1 | inactive | inactive | inactive
48 | OCc1cccc(-c2ccsc2)c1 | inactive | inactive | inactive
49 | C[C@@H]1CCCCO[C@@H](CN(C)C(=O)Nc2ccc(F)cc2)[C@@H](C)CN([C@@H](C)CO)C(=O)c2cc(NC(=O)Nc3cccc4ccccc34)ccc2O1 | inactive | inactive | inactive
50 | C[C@@H]1CN([C@@H](C)CO)C(=O)c2cccc(N(C)C)c2O[C@@H]1CN(C)S(C)(=O)=O | inactive | inactive | inactive
51 | C[C@H](CO)N1C[C@H](C)[C@@H](CN(C)Cc2ccc(C(F)(F)F)cc2)Oc2c(NC(=O)C3CCCCC3)cccc2C1=O | inactive | inactive | inactive
52 | CC(C)CC#Cc1ccc2c(c1)O[C@H](CN(C)C(=O)c1cnccn1)[C@@H](C)CN([C@@H](C)CO)S2(=O)=O | inactive | inactive | inactive
53 | CO[C@H]1CN(C)C(=O)c2cc(NS(=O)(=O)CC(F)(F)F)ccc2OC[C@H](C)N(C(=O)c2ccc3c(c2)OCO3)C[C@H]1C | inactive | inactive | inactive
54 | CS(=O)(=O)N1[C@@H]2c3ccc(-c4ccc(F)cc4)c(=O)n3C[C@H]1[C@H](CO)[C@H]2C(=O)N1CCOCC1 | inactive | inactive | inactive
55 | Cc1noc(C)c1NC(=O)N[C@H]1CC[C@@H](CC(=O)N2CCN(C)CC2)O[C@@H]1CO | inactive | inactive | inactive
56 | Cc1ccc(S(=O)(=O)Nc2ccc3c(c2)C(=O)N([C@H](C)CO)C[C@H](C)[C@H](CN(C)C(=O)C2CCCCC2)OCCCC[C@H](C)O3)cc1 | inactive | inactive | inactive
57 | COCC(=O)Nc1ccc2c(c1)OC[C@H](C)N(Cc1ccccc1OC)C[C@@H](C)[C@H](OC)CN(C)C2=O | inactive | inactive | inactive

Reference: the antibiotic and cytotoxicity screens of Wong et al. (2023)
